Measured values reported in the supplement of paper PMC3334620.
Whole data set: some 33,000 sequences, median “E-score (-0.5 to 0.5)” near -0.04, cut for the highest 2% near 0.36. This is one part of the list.

biological target: T1, Hmlalpha2 (UniProt P0CY09); test: PBM E-score (8-mer binding enrichment) (E-score (-0.5 to 0.5)); higher = stronger / more preferred TF binding; most listed sequences are background and not binding sites; settings: protein concentration: 200 nM; construct: GST-full length
T1 sequence: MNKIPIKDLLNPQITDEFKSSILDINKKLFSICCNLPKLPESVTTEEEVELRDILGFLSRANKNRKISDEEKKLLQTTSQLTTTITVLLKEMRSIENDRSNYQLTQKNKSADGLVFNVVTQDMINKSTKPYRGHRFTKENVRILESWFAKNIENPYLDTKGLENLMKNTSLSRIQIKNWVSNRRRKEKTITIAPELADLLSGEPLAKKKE
Method in brief: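 Using PURExpress in vitro transcription/translation, GST-tagged yeast transcription factors were made in full-length or DNA-binding-domain form. These were applied at about 100-200 nM to double-stranded universal all-10-mer Agilent arrays, and bound protein was detected with fluorescent anti-GST. Scans were normalised with masliner before the Universal PBM Analysis Suite assigned E-scores to ungapped eight-base words pooled with their reverse complements.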

Row | Sequence | PBM E-score
1 | AAGTAGCT | 0.0166
2 | CTGTTTCC | -0.11
3 | AGTTAGAG | -0.207
4 | CACGTGCC | 0.101
5 | CCAAGCAA | -0.0774
6 | AGACTCTG | -0.0718
7 | AAAAATGT | 0.146
8 | GCCATAGC | 0.00227
9 | CCTGTAAC | 0.093
10 | AAATCATC | -0.0814
11 | AGGAAATC | -0.0186
12 | ACGTTGCG | 0.0728
13 | CCACAAAA | 0.0522
14 | CCCAACAC | 0.113
15 | ACTATAAT | 0.15
16 | CACTATGA | -0.0782
17 | ATCAAACG | 0.0386
18 | GCGATCGA | -0.00251
19 | ACTTCGGC | -0.151
20 | ATTGAAAA | 0.116
21 | GCTAATTA | 0.183
22 | ATCCCGAT | -0.152
23 | ACCCTTCC | -0.197
24 | CAGATTCA | 0.0122
25 | GATTCTGC | 0.0533

Row | Sequence | PBM E-score
26 | GTGGTAAA | 0.215
27 | ACCGTGCA | 0.0448
28 | CCAACTAA | 0.00974
29 | AACATCTA | 0.178
30 | CCAGAATA | 0.146
31 | AAAAACTC | 0.121
32 | CCACTTCA | -0.0825
33 | CACGGTCC | -0.0755
34 | ATTACTGC | 0.146
35 | GTAGAGAA | 0.0859
36 | AGCTCCCA | -0.128
37 | CGGTTTAA | 0.151
38 | CGTTAGGA | 0.0405
39 | ACGCCCAT | -0.152
40 | CACTATTA | 0.00891
41 | CATCAGAC | 0.0141
42 | CGATATTA | 0.17
43 | ACCCATGG | -0.19
44 | GCAGAAAA | 0.022
45 | CCATGAGG | -0.313
46 | CGGAAGAC | 0.0635
47 | CTTTAGCA | 0.0763
48 | GCCTTAAA | -0.0607
49 | AAGTTGGA | 0.147
50 | ACATGTGG | 0.312

Row | Sequence | PBM E-score
51 | CGCGGCCC | -0.135
52 | GAGCTGAC | 0.0032
53 | CTTTCATC | -0.277
54 | TCATACGA | 0.0853
55 | AGCTTCGA | -0.0162
56 | AGGATTCG | -0.204
57 | CATGAGTA | 0.0464
58 | TCTGGACA | 0.106
59 | ACTGTCTC | -0.116
60 | ACTTAAGT | 0.129
61 | ATTGTGCG | -0.182
62 | ACAGAGCG | -0.0568
63 | GAGGGGAC | -0.247
64 | CATTACCG | 0.0899
65 | CGATTAAC | 0.149
66 | ACACATCA | 0.183
67 | ACAGACCG | -0.0549
68 | CCCGTCTA | -0.0269
69 | AATGGCAG | -0.113
70 | ACATAACA | 0.434
71 | AGGTGACA | -0.0537
72 | ATGCCTTA | 0.0144
73 | ATATTTGA | -0.0277
74 | AGTCACCA | -0.307
75 | AATCATGT | 0.409

Row | Sequence | PBM E-score
76 | GGTCCTCA | -0.147
77 | GCCCATGA | -0.165
78 | GCACGCCC | -0.0771
79 | GAGTTTGC | -0.105
80 | CACTTAAG | 0.23
81 | ACGGCCCT | -0.0414
82 | ATGGTGCG | -0.0621
83 | CTAAGCTC | -0.0168
84 | CTCAACAG | 0.0165
85 | CTATCTTA | -0.0412
86 | GCTAAATA | 0.199
87 | CCGGGTGC | -0.315
88 | CAAATGTA | 0.35
89 | CCGACCCG | -0.21
90 | GACGATTA | 0.15
91 | GGAGTTAC | 0.00707
92 | AATCACAC | 0.274
93 | CACCCCGG | -0.197
94 | GAAGACGC | -0.11
95 | AGGTTACT | -0.0215
96 | CAGCGGAA | -0.0993
97 | GTCAGAAC | -0.0822
98 | CAATATCA | 0.0195
99 | ACCCGGGA | -0.0806
100 | GCGGAGTA | -0.109

Row | Sequence | PBM E-score
101 | CACAATCG | 0.0223
102 | CCGCTAAC | -0.116
103 | GAAACAGC | -0.195
104 | TAGGCGCA | -0.225
105 | CCATGGCA | -0.178
106 | CCTGCTAC | -0.0531
107 | ACAGAACA | 0.227
108 | ACTCCGCA | -0.162
109 | AATGGGCC | -0.229
110 | ATCACAGC | 0.0989
111 | CCCTGATC | -0.332
112 | CGAGAAGC | -0.189
113 | CCCATCAC | -0.00452
114 | ACCGGTCG | -0.156
115 | CTGTCATA | 0.126
116 | GAGGCACA | -0.223
117 | AGGAGGCG | -0.247
118 | TAAGCGTA | 0.0965
119 | CGCGGTTC | 0.0441
120 | AGGGGCTC | -0.235
121 | GCCCAGTA | -0.0698
122 | TACCCTCA | -0.219
123 | GTTACAAA | 0.303
124 | AAGGTACC | -0.181
125 | CCAGCGCA | -0.209

Row | Sequence | PBM E-score
126 | CCTCTTCC | -0.376
127 | ACTTGTAC | 0.12
128 | GACGAACC | -0.14
129 | ATGGTAGC | -0.037
130 | ACAGTGAG | -0.0397
131 | ACCGGCAC | 0.0874
132 | CTTAGACC | 0.0601
133 | GCTCACTA | -0.0311
134 | CCTTCCAC | -0.228
135 | CTTAGCTC | -0.112
136 | GGGCATTA | -0.0316
137 | AATTACCT | 0.213
138 | AAAATCTT | 0.0527
139 | AGAGGGAG | -0.249
140 | TGACCCCA | -0.157
141 | ACGGGCTG | -0.209
142 | AGTTAACG | 0.248
143 | GGCTAGCC | -0.5
144 | TCGGTAGA | -0.0018
145 | CAGTCTAA | -0.0759
146 | GTCGTTTA | 0.193
147 | CAGGTAGA | -0.00202
148 | CTTCCATA | -0.184
149 | CAGGAAGG | -0.148
150 | AGATGATG | -0.0579

Row | Sequence | PBM E-score
151 | ACCCCAGT | -0.103
152 | GGCCGTTA | -0.159
153 | GGGGGGCA | -0.328
154 | AAGCTCCT | -0.106
155 | AAAAATCG | -0.141
156 | AAACGGGA | -0.169
157 | GTGCAGGA | 0.0252
158 | AAGTTCCG | -0.0355
159 | TACTGAGA | -0.0602
160 | ACTTCTTA | 0.106
161 | GCCCCGAA | -0.234
162 | CTATGATA | -0.0313
163 | CAGCTCTA | -0.174
164 | AAAGCAGG | 0.0392
165 | GGTTGGTA | 0.114
166 | GCATCCCA | -0.287
167 | CATGGGGG | -0.261
168 | TGCCGGCA | 0.135
169 | CAGCGCGA | -0.14
170 | AGCGATCA | -0.0427
171 | GGAGTAAC | -0.237
172 | GGTCTCTA | -0.281
